Reference: the supplement of paper PMC4967469
A lower IC50 marks a more sensitive line; a limit (>, <) means that the fit lies beyond the doses tested. For AUC the same curve is integrated over the 256-fold range of doses and scaled to a fraction; the more sensitive the line, the further below 1.

The cell lines below were run with COc1ccc(C2=N[C@@H](c3ccc(Cl)cc3)[C@@H](c3ccc(Cl)cc3)N2C(=O)N2CCNC(=O)C2)c(OC(C)C)c1 [Nutlin-3a] (assay: Viability of human cancer cell lines after 72 h of drug (GDSC screen)).
Protocol: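 Human cancer cell lines in 384-well plates, medium with 10% serum, drug for 72 h over a 256-fold dose range (nine 2-fold or five 4-fold steps up to the top dose). Adherent lines were fixed and stained with the nucleic acid dye Syto60, suspension lines read with resazurin; signal relative to control wells, capped at 0 and 100%. One two-parameter sigmoid per drug and line, fitted in a mixed model over all curves with the slope shared within a line.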
For “NCI-H1993 (lung adenocarcinoma, adherent, top dose 8 µM)”, the AUC was 0.981 and the IC50 was > 8 µM.
In the case of “NCI-H2009 (lung adenocarcinoma, adherent, top dose 8 µM)”, the AUC is reported as 0.974 and the IC50 is reported as > 8 µM.
With “NCI-H2023 (lung adenocarcinoma, adherent, top dose 4 µM)” the AUC was 0.952 and the IC50 was > 4 µM.
“NCI-H2030 (lung adenocarcinoma, adherent, top dose 4 µM)” was tested, and the AUC was 0.965 and the IC50 was > 4 µM.
For “NCI-H2052 (mesothelioma, adherent, top dose 8 µM)”, the AUC was 0.92 and the IC50 was > 8 µM.
With “NCI-H2066 (small cell lung carcinoma, adherent, top dose 8 µM)” the AUC was 0.98 and the IC50 was > 8 µM.
With “NCI-H2081 (small cell lung carcinoma, suspension, top dose 8 µM)” the AUC was 0.986 and the IC50 was > 8 µM.
“NCI-H2085 (lung adenocarcinoma, adherent, top dose 4 µM)” was tested, and the AUC was 0.947 and the IC50 was > 4 µM.
Work on “NCI-H2087 (lung adenocarcinoma, semi-adherent, top dose 8 µM)” yielded an AUC of 0.858 and an IC50 of 7.37 µM.
With “NCI-H2110 (non-small cell lung carcinoma, adherent, top dose 8 µM)” the AUC was 0.956 and the IC50 was > 8 µM.
In the case of “NCI-H2135 (non-small cell lung carcinoma, adherent, top dose 8 µM)”, the AUC is reported as 0.974 and the IC50 is reported as > 8 µM.
With “NCI-H2141 (small cell lung carcinoma, suspension, top dose 8 µM)” the AUC was 0.959 and the IC50 was > 8 µM.
With “NCI-H2172 (non-small cell lung carcinoma, adherent, top dose 8 µM)” the AUC was 0.981 and the IC50 was > 8 µM.
With “NCI-H2227 (small cell lung carcinoma, semi-adherent, top dose 8 µM)” the AUC was 0.986 and the IC50 was > 8 µM.
With “NCI-H2291 (lung adenocarcinoma, adherent, top dose 8 µM)” the AUC was 0.982 and the IC50 was > 8 µM.
“NCI-H2342 (lung adenocarcinoma, adherent, top dose 8 µM)” was tested, and the AUC was 0.977 and the IC50 was > 8 µM.
In the case of “NCI-H2347 (lung adenocarcinoma, adherent, top dose 8 µM)”, the AUC is reported as 0.973 and the IC50 is reported as > 8 µM.
“NCI-H2405 (lung adenocarcinoma, adherent, top dose 8 µM)” was tested, and the AUC was 0.969 and the IC50 was > 8 µM.
In the case of “NCI-H2444 (non-small cell lung carcinoma, adherent, top dose 8 µM)”, the AUC is reported as 0.987 and the IC50 is reported as > 8 µM.
In the case of “NCI-H2452 (mesothelioma, adherent, top dose 8 µM)”, the AUC is reported as 0.984 and the IC50 is reported as > 8 µM.
In the case of “NCI-H3122 (lung adenocarcinoma, adherent, top dose 8 µM)”, the AUC is reported as 0.985 and the IC50 is reported as > 8 µM.
“NCI-N87 (stomach, adherent, top dose 8 µM)” was tested, and the AUC was 0.974 and the IC50 was > 8 µM.
“NCI-SNU-1 (stomach, suspension, top dose 8 µM)” was tested, and the AUC was 0.948 and the IC50 was > 8 µM.
“NCI-SNU-5 (stomach, suspension, top dose 8 µM)” was tested, and the AUC was 0.985 and the IC50 was > 8 µM.
With “NCI-SNU-16 (stomach, suspension, top dose 8 µM)” the AUC was 0.987 and the IC50 was > 8 µM.
NEC8 (testis, adherent, top dose 8 µM) showed an AUC of 0.658 and an IC50 of 1.27 µM.
In the case of “NH-12 (neuroblastoma, adherent, top dose 8 µM)”, the AUC is reported as 0.812 and the IC50 is reported as 4.94 µM.
For “NKM-1 (acute myeloid leukaemia, suspension, top dose 8 µM)”, the AUC was 0.685 and the IC50 was 1.67 µM.
With “NMC-G1 (glioma, adherent, top dose 8 µM)” the AUC was 0.892 and the IC50 was > 8 µM.
For “NOMO-1 (acute myeloid leukaemia, suspension, top dose 8 µM)”, the AUC was 0.883 and the IC50 was > 8 µM.
With “NOS-1 (osteosarcoma, adherent, top dose 8 µM)” the AUC was 0.931 and the IC50 was > 8 µM.
“NU-DUL-1 (B-cell lymphoma, suspension, top dose 8 µM)” was tested, and the AUC was 0.927 and the IC50 was > 8 µM.
“NUGC-3 (stomach, adherent, top dose 4 µM)” was tested, and the AUC was 0.971 and the IC50 was > 4 µM.
For “NUGC-4 (stomach, adherent, top dose 8 µM)”, the AUC was 0.918 and the IC50 was > 8 µM.
With “NY (osteosarcoma, adherent, top dose 8 µM)” the AUC was 0.963 and the IC50 was > 8 µM.
For “OACM5-1 (oesophagus, semi-adherent, top dose 8 µM)”, the AUC was 0.986 and the IC50 was > 8 µM.
“OACp4C (oesophagus, adherent, top dose 8 µM)” was tested, and the AUC was 0.962 and the IC50 was > 8 µM.
OAW-28 (ovary, adherent, top dose 4 µM) was tested, and the AUC was 0.967 and the IC50 was > 4 µM.
With OAW-42 (ovary, adherent, top dose 8 µM) the AUC was 0.958 and the IC50 was > 8 µM.
OC-314 (ovary, adherent, top dose 8 µM) was tested, and the AUC was 0.991 and the IC50 was > 8 µM.
Cell Line “OCI-AML2 (acute myeloid leukaemia, suspension, top dose 8 µM)” has an AUC of 0.858 and an IC50 of 4.07 µM.
With “OCI-AML3 (acute myeloid leukaemia, suspension, top dose 8 µM)” the AUC was 0.884 and the IC50 was 6.55 µM.
In the case of “OCI-AML5 (acute myeloid leukaemia, suspension, top dose 8 µM)”, the AUC is reported as 0.733 and the IC50 is reported as 2.15 µM.
“OCI-LY7 (B-cell lymphoma, suspension, top dose 8 µM)” was tested, and the AUC was 0.963 and the IC50 was > 8 µM.
In the case of “OCI-LY-19 (B-cell lymphoma, suspension, top dose 8 µM)”, the AUC is reported as 0.698 and the IC50 is reported as 1.71 µM.
With “OCI-M1 (acute myeloid leukaemia, suspension, top dose 8 µM)” the AUC was 0.993 and the IC50 was > 8 µM.
With “OCUB-M (breast, adherent, top dose 8 µM)” the AUC was 0.973 and the IC50 was > 8 µM.
For “OCUM-1 (stomach, adherent, top dose 8 µM)”, the AUC was 0.783 and the IC50 was 3.76 µM.
“OE19 (oesophagus, adherent, top dose 8 µM)” was tested, and the AUC was 0.985 and the IC50 was > 8 µM.
“OE21 (oesophagus, adherent, top dose 8 µM)” was tested, and the AUC was 0.889 and the IC50 was > 8 µM.
In the case of “OE33 (oesophagus, adherent, top dose 8 µM)”, the AUC is reported as 0.982 and the IC50 is reported as > 8 µM.
In the case of OMC-1 (cervix, adherent, top dose 8 µM), the AUC is reported as 0.988 and the IC50 is reported as > 8 µM.
“ONS-76 (medulloblastoma, adherent, top dose 8 µM)” gave an AUC of 0.799 and an IC50 of 4.17 µM.
For “OPM-2 (myeloma, suspension, top dose 8 µM)”, the AUC was 0.994 and the IC50 was > 8 µM.
Cell Line “OS-RC-2 (kidney, adherent, top dose 8 µM)” has an AUC of 0.792 and an IC50 of 5.63 µM.
For “OSC-19 (head and neck, adherent, top dose 8 µM)”, the AUC was 0.956 and the IC50 was > 8 µM.
“OSC-20 (head and neck, adherent, top dose 4 µM)” was tested, and the AUC was 0.973 and the IC50 was > 4 µM.
In the case of OV-7 (ovary, adherent, top dose 8 µM), the AUC is reported as 0.927 and the IC50 is reported as > 8 µM.
For OV-17R (ovary, adherent, top dose 8 µM), the AUC was 0.964 and the IC50 was > 8 µM.
With OV-56 (ovary, adherent, top dose 8 µM) the AUC was 0.985 and the IC50 was > 8 µM.
With OV-90 (ovary, adherent, top dose 8 µM) the AUC was 0.961 and the IC50 was > 8 µM.
“OVCA420 (ovary, adherent, top dose 8 µM)” was tested, and the AUC was 0.982 and the IC50 was > 8 µM.
“OVCA433 (ovary, adherent, top dose 8 µM)” showed an AUC of 0.83 and an IC50 of 5.83 µM.
With “OVCAR-3 (ovary, adherent, top dose 8 µM)” the AUC was 0.929 and the IC50 was > 8 µM.
“OVCAR-4 (ovary, adherent, top dose 8 µM)” was tested, and the AUC was 0.956 and the IC50 was > 8 µM.
With “OVCAR-5 (ovary, adherent, top dose 8 µM)” the AUC was 0.977 and the IC50 was > 8 µM.
With “OVCAR-8 (ovary, adherent, top dose 8 µM)” the AUC was 0.988 and the IC50 was > 8 µM.
For OVISE (ovary, adherent, top dose 8 µM), the AUC was 0.756 and the IC50 was 3.59 µM.
With OVK-18 (ovary, adherent, top dose 8 µM) the AUC was 0.777 and the IC50 was 3.56 µM.
For OVKATE (ovary, adherent, top dose 8 µM), the AUC was 0.976 and the IC50 was > 8 µM.
OVMIU (ovary, adherent, top dose 8 µM) was tested, and the AUC was 0.856 and the IC50 was > 8 µM.
Work on OVTOKO (ovary, adherent, top dose 8 µM) yielded an AUC of 0.753 and an IC50 of 3.35 µM.
With “P12-ICHIKAWA (T-cell lymphoblastic leukaemia, suspension, top dose 8 µM)” the AUC was 0.994 and the IC50 was > 8 µM.
Cell Line “P30-OHK (lymphoblastic leukaemia, suspension, top dose 8 µM)” has an AUC of 0.877 and an IC50 of 5.77 µM.
“P31-FUJ (acute myeloid leukaemia, suspension, top dose 8 µM)” was tested, and the AUC was 0.996 and the IC50 was > 8 µM.
In the case of “P32-ISH (Burkitt lymphoma, suspension, top dose 8 µM)”, the AUC is reported as 0.995 and the IC50 is reported as > 8 µM.
Cell Line PA-1 (ovary, adherent, top dose 8 µM) has an AUC of 0.756 and an IC50 of 2.22 µM.
In the case of “PA-TU-8902 (pancreas, adherent, top dose 8 µM)”, the AUC is reported as 0.981 and the IC50 is reported as > 8 µM.
In the case of “PANC-02-03 (pancreas, adherent, top dose 8 µM)”, the AUC is reported as 0.98 and the IC50 is reported as > 8 µM.
For “PANC-03-27 (pancreas, adherent, top dose 8 µM)”, the AUC was 0.985 and the IC50 was > 8 µM.
With “PANC-04-03 (pancreas, adherent, top dose 8 µM)” the AUC was 0.958 and the IC50 was > 8 µM.
